The source of these data is the supplement of paper PMC10338343.

± gives the standard deviation. The full ranking holds about 5,500 sequences; the median of “pre-steady-state target cleavage rate” is about 0.1, and the highest 2% start at about 0.64. The list shows a part of the results, in another mix than the full data.

This test concerns MIWI (PIWIL1) piRISC loaded with piRNA #2 (30 nt). The experiment in a line: pre-steady-state target cleavage rate (min^-1); MIWI and MILI are mouse PIWI proteins and EfPiwi is from a freshwater sponge; tags in brackets are library labels; higher = faster piRNA-guided slicing of the target. The conditions noted are these: guide: piRNA #2 5'p-UUAGGUAACCCAGUAGAUCCAGAGGAAUUC; auxiliary factor: 500 nM mouse GTSF1. The essentials: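 Three pooled Cleave-'n-Seq trials supplied the data, with k3 capped at 0.0001 min^-1. In each, […] transcribed, DNA-blocked target RNA library and 1 nM active affinity-purified piRISC with one synthetic guide reacted in HEPES–potassium acetate buffer at 33 °C for 0–8 or 0–960 min, with or without 500 nM GTSF1 partner protein. Uncleaved targets were sequenced and normalised to depth and to weakly complementary targets. A burst-and-steady-state fit provided the pre-steady-state cleavage rate.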
In the case of CUUAACCUCUGGAUCACUGGGUUACCUAA, the “pre-steady-state target cleavage rate” value was 0.0165 ± 0.0039.
As to GAAUUCCUCUGGAACUACUGGGUUAGCUAA, the “pre-steady-state target cleavage rate” value came to 0.388 ± 0.049.
With CAAUUGCUCUGGAUCUACUGGGUUACGUAA the figure was 0.536 ± 0.067; with GAUUUCCUCAGGAUCUACUGGGUUACCUAA, 0.459 ± 0.046; with CUUUUCCUCUGGAUCUACUGGGUGUACCUAA, 0.247 ± 0.03.
On to CAAUUGCCUCUGGAUCUACUGGGUUACCUAA, for which the “pre-steady-state target cleavage rate” value is 0.33 ± 0.056.
Regarding CUUAACUUCUGGAUCUACUGGGUUACCUAA, the “pre-steady-state target cleavage rate” value stood at 0.159 ± 0.017.
The result for CUAUUCCUCUCGGAUCUACUGGGUUACCUAA reads 0.575 ± 0.089.
With CUUAAGGUCUGCAUCUACUGGCUUACCUAA the figure was 0.0305 ± 0.0092.
With CUUUUCCUGUGGAUCUACUGGGUUUCCUAA the figure was 0.255 ± 0.038; with CUUAAGGAGUGGAUCUACUGCGUUACCUAA, 0.0756 ± 0.019; with CUUAACCUCUGGAUCAAGUGGGUUACCUAA, 0.0128 ± 0.0045.
CAAUUCGUCUGGAUGUACUGGGUUACCUAA: the “pre-steady-state target cleavage rate” value is 0.0676 ± 0.036.
Regarding CAAUUCCUCUGGAUCUACUGCGUUACCUAA, the “pre-steady-state target cleavage rate” value was found to be 0.593 ± 0.069.
The result for CUUAAGGAGACCUUCUACUGCGUUACGUAA reads 0.005 ± 0.0034; that for CUUAAGGAGACCUAGAACUGGGUUACCAUAA, less than 0.0001.
The result for CUAUUCCUCUGGAUCUACAGGGUUACCUAA reads 0.236 ± 0.026.
With CUAUUCCUCUGGAUCUACUGGGUUGCCUAA the figure was 0.368 ± 0.044; with CUUAACCACUGGAUCUAGUGGGUUACCUAA, 0.208 ± 0.028.
For the sequence CUAUUCCUGUGGAUCUACUGCGUUACCUAA, the “pre-steady-state target cleavage rate” value was found to be 0.425 ± 0.055.
The result for CAAUUCCUCUGGAUCUACUGGGUUACCGUAA reads 0.414 ± 0.06; that for CUUUUCCUCUGGAUCUAGUGGGUAACCUAA, 0.0559 ± 0.0098.
The result for CUUAAGCACUGGAUGUACUGGGUUACCUAA reads 0.46 ± 0.043.
For CUUAACCUCUGGAGCUACUGGGUUACCUAA, the “pre-steady-state target cleavage rate” value came to 0.28 ± 0.029.
Take CUUUUCCACUGGAUCUACUGGCUUACCUAA: the “pre-steady-state target cleavage rate” value came out at 0.0677 ± 0.011.
With CUUAUCCUCUGGAUCUACUGGGUAACGUAA the figure was 0.364 ± 0.061; with CUUAUUCCUCUGGAUCUACUGGGUUACCUAA, 0.3 ± 0.043.
The result for CAAAUCCUCUGGAUCUACUGGGUUACGUAA reads 0.555 ± 0.064; that for CUUAAGCUCUGGAUCAACUGGGUUACCAAA, 0.11 ± 0.016; that for CUUAAGCUCUGGAUCUUCUGGGUAACCUAA, 0.0269 ± 0.0093.
With CUUAACCUCUGGAUGCUACUGGGUUACCUAA the figure was 0.188 ± 0.022.
Regarding CUUAUCCUCUGGAUCUACUUGGUUACCUAA, the “pre-steady-state target cleavage rate” value was 0.00515 ± 0.0046.
CUAUUCCUCUGGAUCUACUGGGUUUACCUAA: the “pre-steady-state target cleavage rate” value came out at 0.495 ± 0.058.
The result for CUUAAGCUCUGGAUCUACUGGGUUAACCUAA reads 0.111 ± 0.019; that for CUUUUCCUCUGGAUUUACUGGGUUACCUAA, 0.55 ± 0.053; that for CUUAAGCUCUGGAUCUACUGGGUUACGUAA, 0.45 ± 0.043.
The result for GAAUUCCUCUGGAACUACUGGGUUACCUAA reads 0.262 ± 0.037.
With CUUAUCCUCUGGAGCUACUGGGUUACCUAA the figure was 0.399 ± 0.031; with CUUUUCCUCUGGAUCUACUGGGUCUACCUAA, 0.463 ± 0.038.
For the sequence CAAUUCCUCUGGAUCUACUGGGCUACCUAA, the “pre-steady-state target cleavage rate” value was 0.14 ± 0.029.
The result for CAAUUCCUCUGGAUCUACUGGGUAAGCUAA reads 0.0773 ± 0.026; that for CUUAAGGAGUGGAUCUACUGGGUUACCUAAA, 0.195 ± 0.035; that for CUUAACCUCUGGUCUACUGGGUUACCUAA, 0.127 ± 0.028.
With CUUAUCCUCUGGAUCUACUGGGUUACGUAA the figure was 0.684 ± 0.049.
Consider CUAAUCCUCUGGAACUACUGGGUUACCUAA, for which the “pre-steady-state target cleavage rate” value amounted to 0.484 ± 0.03.
The result for CUUAACCUCUGGUUCUACUGGGUUACCUUA reads 0.335 ± 0.055; that for CAAUUCCUCUGGAUCUACUGGGAAACCUAA, 0.274 ± 0.049; that for GAAUACCACUGGAUCUACUGGGUUACCUAA, 0.293 ± 0.042.
With CAAUUCCUCUGGAUCUAGUGCGUUACCUAA the figure was 0.092 ± 0.015; with CUAUUCCUCUGCAUCAACUGGGUUACCUAA, 0.394 ± 0.03.
The result for GAAUUCCUCUGGAUCUACUGGGUGUACCUAA reads 0.303 ± 0.046; that for CUAUUCCUCUGGAUCUACUGGGUUCCCUAA, 0.246 ± 0.041.
Turning to CUUAAGGAGACCAUCAACUCGGUUACCUAA, the “pre-steady-state target cleavage rate” value was less than 0.0001.
With CUUAAGGAGACCUAGAUGUGGCGUUACCUAA the figure was 0.00651 ± 0.0029.
For CUAUUCCUCUGGAGUCUACUGGGUUACCUAA, the “pre-steady-state target cleavage rate” value was determined as 0.505 ± 0.051.
In the case of GAAUUCCUCUGGAUCUACUGGGUUAGCUUA, the “pre-steady-state target cleavage rate” value was 0.379 ± 0.057.
With CUUAUCCUCUGGAUUUACUGGGUUACCUAA the figure was 0.555 ± 0.04.
With CUUAAGCUCUGGAUCUACUCGGUUACCUUA the figure was 0.0434 ± 0.013.
With CUUAACCUCUGGAUCUACUGGGUAUGCUAA the figure was 0.0233 ± 0.0061; with CAAUUCCUCUGGAUCUACUGGGUUAGCUUA, 0.211 ± 0.061; with GAAUUCCCUGGAUCUACUGGGUUACCUAA, 0.41 ± 0.049.
Turning to CUUAACCUCUCGAUCUACUGGGAUACCUAA, the “pre-steady-state target cleavage rate” value came to 0.35 ± 0.025.
With CAAUUCUCUCUGGAUCUACUGGGUUACCUAA the figure was 0.397 ± 0.055; with CAAUUCCUCUGGAACUACUGGGUUACCAAA, 0.289 ± 0.055; with CUUAUCCUCUGCAUCUACUGGGUUACCUAA, 0.362 ± 0.032.
The result for CUUAAGCUCUAGAUCUACUGGGUUACCUAA reads 0.158 ± 0.017; that for CUUAAGCUCUGGAUCUACAGGGAUACCUAA, 0.0672 ± 0.011; that for GAAAUCCUCUGGUUCUACUGGGUUACCUAA, 0.624 ± 0.05.
The result for GAAUUCCCUCUGGAUCUACUGGGUUACCUAA reads 0.26 ± 0.043.
Take CUUAAGGAAUGGAUCUACUGGGUUACCUAA: the “pre-steady-state target cleavage rate” value came to 0.219 ± 0.029.
The result for CUUAUCGUCUGGAUCUACUGGGUAACCUAA reads 0.124 ± 0.038; that for CUUAUCCUCUGGAUCUACUGGGUAUCCUAA, 0.121 ± 0.03.
